From PMC4336329 (PLoS ONE, 2015) come the findings set out here.

About 14,000 (4.5%) of roughly 310,000 compounds showed an effect of 50% or more. The effect is printed as a negative number. The list shows a part of the results.
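Further: peak tail current of the secondary pulse compared with the same well before compound.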

In the assay the target is human ether-à-go-go-related gene (hERG) potassium channel (human, UniProt Q12809). Put plainly: primary screen, population patch clamp on CHO cells stably expressing hERG.
Sequence of human ether-à-go-go-related gene (hERG) potassium channel (Q12809 whole entry, looked up): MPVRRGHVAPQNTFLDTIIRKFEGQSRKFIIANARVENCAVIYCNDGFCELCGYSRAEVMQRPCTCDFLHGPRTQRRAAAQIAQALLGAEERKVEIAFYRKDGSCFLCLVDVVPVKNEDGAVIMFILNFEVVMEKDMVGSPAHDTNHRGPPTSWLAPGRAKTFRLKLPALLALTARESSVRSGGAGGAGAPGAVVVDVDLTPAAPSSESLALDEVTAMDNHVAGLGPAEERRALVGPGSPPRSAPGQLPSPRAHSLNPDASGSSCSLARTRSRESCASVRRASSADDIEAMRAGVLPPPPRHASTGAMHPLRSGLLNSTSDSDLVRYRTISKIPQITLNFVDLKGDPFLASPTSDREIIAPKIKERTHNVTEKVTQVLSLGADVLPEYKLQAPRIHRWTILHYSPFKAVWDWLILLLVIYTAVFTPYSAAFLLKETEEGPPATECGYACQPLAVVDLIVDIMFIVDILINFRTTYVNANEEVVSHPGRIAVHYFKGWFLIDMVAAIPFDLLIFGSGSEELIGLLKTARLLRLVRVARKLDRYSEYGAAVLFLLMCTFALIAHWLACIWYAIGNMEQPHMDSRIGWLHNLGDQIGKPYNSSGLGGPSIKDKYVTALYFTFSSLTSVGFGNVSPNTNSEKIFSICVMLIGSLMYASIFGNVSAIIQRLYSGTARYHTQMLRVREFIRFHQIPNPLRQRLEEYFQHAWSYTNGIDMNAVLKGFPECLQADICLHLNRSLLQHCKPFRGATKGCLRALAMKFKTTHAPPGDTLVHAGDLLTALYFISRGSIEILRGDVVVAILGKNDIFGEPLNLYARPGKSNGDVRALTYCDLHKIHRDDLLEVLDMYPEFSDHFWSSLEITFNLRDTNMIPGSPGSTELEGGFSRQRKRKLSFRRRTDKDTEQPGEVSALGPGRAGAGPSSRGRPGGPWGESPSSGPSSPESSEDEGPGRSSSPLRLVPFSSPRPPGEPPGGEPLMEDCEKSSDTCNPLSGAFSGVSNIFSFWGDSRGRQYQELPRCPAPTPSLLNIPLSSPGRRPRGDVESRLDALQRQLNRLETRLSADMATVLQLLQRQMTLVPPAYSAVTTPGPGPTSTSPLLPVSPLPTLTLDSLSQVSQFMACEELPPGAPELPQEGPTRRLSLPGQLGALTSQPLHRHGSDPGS
As for `COc1cc(C(O)c2nc3ccccc3n2C)cc(OC)c1OC` (stereo not drawn), the “hERG current change (%, negative = inhibition) at 10uM” value is given as 0.332%. Under `O=C(COC(=O)CNC(=O)c1cccc([N+](=O)[O-])c1)Nc1cccc(S(=O)(=O)N2CCCC2)c1` stands -2.19%. As for `NC(=O)c1ccccc1OCCOCCOCCOc1ccccc1C(N)=O`, the “hERG current change (%, negative = inhibition) at 10uM” value was -16.1%.

On to `COc1ccccc1OCc1ccc(C(=O)NCC2CCCO2)o1` (stereo not drawn), for which the “hERG current change (%, negative = inhibition) at 10uM” value is -7.04%.

In the case of `Cc1[nH]n2c(=O)cc(Cc3ccccc3)nc2c1C#N`, the “hERG current change (%, negative = inhibition) at 10uM” value is -7.67%. Under `Cc1ccc(CN2CCN(Cc3cn[nH]c3C3CCCCC3)CC2CCO)cc1` (stereo not drawn) stands -62.9%; under `CCN1CCN(Cc2ccc(NC(=O)c3ccc(C)c(NC(=O)N4CCNC4=O)c3)cc2C(F)(F)F)CC1`, 1.09%; under `OCCc1c[nH]c2ccc(C(F)(F)F)cc12`, 6.01%. Under `CC(=O)N1CCc2cc(Br)cc(S(=O)(=O)NCc3ccccn3)c21` stands 7.02%.

`COc1ccc(Cl)cc1C(=O)NNC(=O)CSc1nnnn1C`: the “hERG current change (%, negative = inhibition) at 10uM” value was 9.95%. Next, `CC(NC(=O)COc1ccc(S(=O)(=O)N2CCOCC2)cc1)c1ccccc1` (stereo not drawn): -4.63%; `C/C(=N\NC(=O)Cn1nc(C)cc1C)c1ccc([N+](=O)[O-])cc1`: -17.6%. Under `CCCCS/C(N)=N/N=C/c1ccccc1O` stands 14.4%; under `COC(=O)/C(=C(/F)SCC(C)=O)C(F)(F)F`, 5.79%. Next, `O=C(CCC1CCCN(C(=O)c2cccs2)C1)N1CCN(c2ccccn2)CC1` (stereo not drawn): -23.6%; `O=S(=O)(c1cc(C(F)(F)F)ccc1Cl)N1CCN(c2ccccn2)CC1`: -26.3%; `Cc1ccc(OCCCC(=O)N2CCN(S(=O)(=O)c3cccc(F)c3)CC2)cc1`: -9%. Turning to `Fc1ccccc1CN1CCCN(C(=S)Nc2cccc(Cl)c2)C1`, the “hERG current change (%, negative = inhibition) at 10uM” value is reported as -22.8%. Next, `COc1ccccc1N(CC1CO1)S(=O)(=O)c1ccccc1` (stereo not drawn): -6.08%; `CCCNC(=O)COc1ccc(-c2nn(C)c(=O)c3ccccc23)cc1`: 4.95%; `Cc1ccc2nc(SCC(=O)NNC(=O)c3ccccc3)[nH]c2c1`: -4.55%.

In the case of `CCCS(=O)(=O)N1CCCC(C(=O)NC(C)c2ccc3c(c2)OCCO3)C1` (stereo not drawn), the “hERG current change (%, negative = inhibition) at 10uM” value was found to be 9.55%. Next, `Cc1ccc(-c2nnn(CC(=O)N3CCC(C)CC3)n2)o1`: 12.7%; `CCOC(=O)Cc1nnc(NC(=O)CSc2ccc(C)cc2)s1`: 12.6%; `CC1CCN(C(=O)C(=O)c2cn(CC(=O)N3CCCC3)c3ccccc23)CC1`: 22.2%. For `CCOCCCNC(=O)C(NC(=O)c1ccc2c(c1)OCO2)c1ccccc1` (stereo not drawn), the “hERG current change (%, negative = inhibition) at 10uM” value is 15%. Next, `COc1ccc(CN2C(=O)C(C)Oc3ccccc32)cc1` (stereo not drawn): -7.81%; `Cc1ccc(C(=O)N2CCN(c3ncnc4c(C)csc34)CC2)cc1`: -21.1%. Under `CCCC(C)C(=O)Nc1ccc(C(N)=O)cc1` (stereo not drawn) stands 5.3%; under `CCn1c2ccccc2c2cc(NC(=O)CSc3nnc(C4CC4)n3Cc3ccco3)ccc21`, 6.81%; under `COc1ccc(C(=O)N/N=C(\C)c2ccc(NC(=O)Cc3ccccc3)cc2)c(OC)c1`, -2.17%. Under `O=[N+]([O-])C1=CC=C2C(=NC3(CCCCC3)N2O)C1=NCCO` stands -0.0914%; under `COc1ccc(S(=O)(=O)N2CCN(CCC(=O)Nc3ccccc3F)CC2)cc1`, -0.0172%. As to `CCc1nccn1S(=O)(=O)c1ccc(OC)c(OC)c1`, the “hERG current change (%, negative = inhibition) at 10uM” value was determined as 3.05%.

On to `Cc1csc(NC(=O)c2ccc[nH]c2=O)n1`, for which the “hERG current change (%, negative = inhibition) at 10uM” value amounted to 1.66%. Next, `NC(=O)c1oc2ccc(Cl)cc2c1NC(=O)CN1CCOCC1`: -9.08%. Next, `O=C(CCCOc1ccccc1)Nc1cccc(S(=O)(=O)N2CCCCCC2)c1`: -15.7%; `COCCN1Cc2cccc(C(=O)Nc3cccc(-c4nc5ccccc5[nH]4)c3)c2C1=O`: -47.7%.

In the case of `CCN(CC)c1ccc2cc(C(N)=O)c(=N)oc2c1`, the “hERG current change (%, negative = inhibition) at 10uM” value was -58.5%. Under `Br.C/C(Sc1nnc(Cc2ccccc2)o1)=C(/O)c1ccccc1` stands -2.46%. Under `Cn1ccnc1SCC(=O)Nc1cccc(C(F)(F)F)c1` stands -0.393%; under `CSc1ccccc1-c1nc(-c2ccncc2)no1`, 14.1%; under `CCC(Sc1nc(-c2ccccc2)c(C#N)c(=O)[nH]1)C(=O)Nc1cc(C)on1` (stereo not drawn), 5.36%. In the case of `Cc1ccccc1NC(=O)Cc1nc(COC(=O)CCNS(=O)(=O)c2ccccc2)cs1`, the “hERG current change (%, negative = inhibition) at 10uM” value is listed as -14.4%. Next, `O=C(Oc1ccc2c(c1)OCC2=O)c1ccccc1`: 14.1%.

As to `CCOC(=O)C(C)(C)Sc1nc2c(cnn2-c2ccc(Cl)cc2)c(=O)[nH]1`, the “hERG current change (%, negative = inhibition) at 10uM” value is recorded as -41.1%. On to `CCOc1ccc2c(c1)c1nnc(SCC(=O)NC3CC3)nc1n2C`, for which the “hERG current change (%, negative = inhibition) at 10uM” value was -17.4%. Next, `O=C(CC1CCCC1)N1CCN(S(=O)(=O)c2ccc(F)cc2)CC1`: -27.7%; `COc1cc(NC(=O)c2ccccc2)cc(OC)c1`: 3.8%; `Cl.OC(CN1C2=NCCCN2c2ccccc21)c1ccc(Br)cc1` (stereo not drawn): -83.9%. Next, `CC1Cc2nc(SCC(=O)N3CCOCC3)n(C)c(=O)c2S1` (stereo not drawn): 8%; `Cn1c(C(=O)OCC(=O)NCc2cccs2)cc2sccc21`: 3.37%. Consider `O=C(Nc1ccnn1C1CCN(Cc2ccc(Cl)cc2)CC1)C1CCCC1`, for which the “hERG current change (%, negative = inhibition) at 10uM” value is -63.6%.

Regarding `COc1ccccc1NC(=O)C1=C(C)Nc2nnnn2C1c1cccc(C)c1` (stereo not drawn), the “hERG current change (%, negative = inhibition) at 10uM” value is given as -2.36%. Take `COc1cc(/C=N/NC(=O)c2nonc2N)cc(OC)c1OC`: the “hERG current change (%, negative = inhibition) at 10uM” value stood at 15.5%.

On to `O=C(CN1CCCCC1)Nc1ccc(Br)cc1C(=O)c1ccccc1Cl`, for which the “hERG current change (%, negative = inhibition) at 10uM” value turned out to be 8.71%. Next, `CCn1c(SCC(=O)NNC(=O)c2ccco2)nnc1-c1ccco1`: 18.4%; `CC(C)C(=O)N1CCc2cc(-c3csc(N)n3)ccc21`: 5.2%.

`CC(C)(C)OC(=O)N[C@@H](Cc1ccccc1)C(=O)NCC1CCC(C(=O)O)CC1` (stereo partly drawn): the “hERG current change (%, negative = inhibition) at 10uM” value turned out to be 13.1%. As for `CCCNC(=O)C(Cc1ccccc1)NC(=O)c1ccc(C(F)(F)F)cc1` (stereo not drawn), the “hERG current change (%, negative = inhibition) at 10uM” value amounted to 9.48%.

For the molecule `S=C(Nc1ccccc1)Nc1nccs1`, the “hERG current change (%, negative = inhibition) at 10uM” value worked out at 24.4%. Consider `O=C(c1cccc(Cl)c1)N1CCC(=O)N(C(CO)Cc2ccccc2)CC1` (stereo not drawn), for which the “hERG current change (%, negative = inhibition) at 10uM” value is 6.58%. Next, `Cc1c(NC(=O)c2ccccc2NS(=O)(=O)c2ccc(F)cc2)c(=O)n(-c2ccccc2)n1C`: 7.8%; `O=C(COc1ccc(Cl)cc1)NCCNC(=O)c1ccccn1`: -7.45%; `C/C(=N\Nc1nc2c(s1)CCCC2)c1ccccc1.Cl`: -17.7%. On to `OCC[C@H]1C[C@H](O)[C@@H](O)[C@]2(CCCc3ccccc3O2)O1`, for which the “hERG current change (%, negative = inhibition) at 10uM” value came out at 0.151%. In the case of `Cl.OC(COc1ccc(Cl)cc1)CN1C2=NCCCN2c2ccccc21` (stereo not drawn), the “hERG current change (%, negative = inhibition) at 10uM” value was -76.3%. Under `Cc1n(Cc2ccccc2)c2ccccc2[n+]1Cc1ccccc1.[Cl-]` stands -1.19%; under `Cc1ccc(CSC2=Nc3sccc3C3=NC(=O)CN23)cc1`, -19.1%.

Consider `Cc1ccc(C(=O)N2CCN(c3ccc(N4CCOCC4)nn3)CC2)cc1`, for which the “hERG current change (%, negative = inhibition) at 10uM” value is -18.1%. Next, `CC(C)NC(=O)c1ccc(NC(=O)CC2SC(N3CCCC3)=NC2=O)cc1` (stereo not drawn): 2.2%; `CCOC(=O)c1ccccc1NC(=O)CSc1nnnn1C`: -11.3%.

With `CC(C)(C)c1ccc(OCCOCCn2cnc3ccccc3c2=O)cc1`, the “hERG current change (%, negative = inhibition) at 10uM” value is recorded as -36.8%. Next, `Cc1cc2nnc(SCC(=O)N3C(C)CCCC3C)n2c(N)n1` (stereo not drawn): 4.24%; `COc1ccc(C(c2nnnn2Cc2ccccc2)N2CCN(C(=O)c3ccco3)CC2)cc1` (stereo not drawn): -60.6%.

Turning to `CC(C)Oc1ccc(C(=O)NCCNC(=O)c2ccco2)cc1`, the “hERG current change (%, negative = inhibition) at 10uM” value is reported as -13.2%. Under `Nc1nnc(N)c2ccccc12` stands 41.6%. Take `COc1ccc(NC(=O)Cn2nnc(-c3ccc(CN4CCOCC4)cc3)n2)c(OC)c1`: the “hERG current change (%, negative = inhibition) at 10uM” value is listed as -13.7%. Next, `Cl.O=C(COc1ccc(Cl)cc1)N1CCN(Cc2ccc3c(c2)OCO3)CC1`: -48.2%; `COc1ccc(CCNC(=O)C(=O)NCC2OCCN2S(=O)(=O)c2cccs2)cc1` (stereo not drawn): -5.53%; `CC(C)CCNC(=O)CSc1nc2ccsc2c(=O)n1NC(=O)c1ccccc1`: -13.4%. Under `O=C(NCC(c1ccco1)N1CCCC1)c1cn(Cc2ccccc2)nc1-c1ccccc1` (stereo not drawn) stands -58.5%; under `CC(C)CNC(=O)CC1Nc2ccccc2NC1=O` (stereo not drawn), 16.9%.

For the molecule `Cc1cccc(C)c1N1CCN(c2ccc3nnc(C(F)(F)F)n3n2)CC1`, the “hERG current change (%, negative = inhibition) at 10uM” value is 9.9%. Next, `CCCS(=O)(=O)c1ncc(Cl)c(C(=O)Nc2ccc(S(=O)(=O)Nc3ncccn3)cc2)n1`: -11.8%; `COc1ccc(C(=O)NCc2nc3ccccc3[nH]2)cc1OC`: 1.96%. Under `COc1ccccc1-c1cc(C(=O)NCCc2ccccc2)no1` stands 5.18%; under `O=c1cc(N2CCCCC2)c(-c2ccccc2)nn1Cc1c(Cl)cccc1Cl`, -7.39%; under `COc1ccc(/C=N/n2c(-c3cc(C)[nH]n3)n[nH]c2=S)cc1`, 14.5%. Next, `CCC1S/C(=N/N=C/c2ccco2)NC1=O` (stereo not drawn): -1.62%.
